Test system: N87 gastric xenografts
Test: N87 gastric xenograft model
Type: in vivo, mouse
Experimental: Similar in vivo experiments were performed with the N87 gastric cancer cell line as described above. To generate xenografts, nude (Nu/Nu) female mice were implanted subcutaneously with 8×10^6 N87 cells in 50% Matrigel (BD Biosciences).
The N87 gastric model was also dosed intravenously Q4d×4 with PBS vehicle, rat-human chimeric anti-Notch3 ADCs and control huNeg-8.8 ADCs, at a dose of 5 mg/kg as provided in FIG. 16D.
The N87 gastric model was also dosed intravenously Q4d×4 with PBS vehicle and rat-human chimeric anti-Notch3 ADCs ch28-mc0131, ch75-mc0131, ch28-m(H2O)c-0131 and ch75-m(H2O)c-0131 at a dose of 5 mg/kg as provided in FIG. 16E.

B1: hu28-vc0101: hu28 conjugated to vc0101 linker-payload (conjugate)
heavy: EVQLVESGGGLVQPGGSLRLSCAASGFTFRDYGMTWVRQAPGKGLEWVAYISSGSNYIYYAEAVKGRFTISRDNAKNSLYLQMNSLRAEDTAVYYCARRGPFVLDAWGQGTLVTVSS[letters of human IgG1 constant region omitted]
light: DIQMTQSPSSLSASVGDRVTITCKASQSINRYLHWYQQKPGKAPKLLIYNANGLQTGVPSRFSGSGSGTDFTLTISSLQPEDFATYYCLQHNTWPDTFGGGTKVEIKRTVAAPSVFIFPPSDEQLKSGTASVVCLLNNFYPREAKVQWKVDNALQSGNSQESVTEQDSKDSTYSLSSTLTLSKADYEKHKVYACEVTHQGLSSPVTKSFNRGEC
- tumor volume (DAY 0, dose 1 mg/kg intravenously Q4d×4): 321 mm^3
- tumor volume (DAY 0, dose 3 mg/kg intravenously Q4d×4): 326 mm^3
- tumor volume (DAY 0, dose 5 mg/kg intravenously Q4d×4): 321 mm^3
- tumor volume (DAY 4, dose 1 mg/kg intravenously Q4d×4): 369 mm^3
- tumor volume (DAY 4, dose 3 mg/kg intravenously Q4d×4): 339 mm^3
- tumor volume (DAY 4, dose 5 mg/kg intravenously Q4d×4): 344 mm^3
- tumor volume (DAY 7, dose 1 mg/kg intravenously Q4d×4): 429 mm^3
- tumor volume (DAY 7, dose 3 mg/kg intravenously Q4d×4): 302 mm^3
- tumor volume (DAY 7, dose 5 mg/kg intravenously Q4d×4): 272 mm^3
- tumor volume (DAY 11, dose 1 mg/kg intravenously Q4d×4): 304 mm^3
- tumor volume (DAY 11, dose 3 mg/kg intravenously Q4d×4): 182 mm^3
- tumor volume (DAY 11, dose 5 mg/kg intravenously Q4d×4): 152 mm^3
- tumor volume (DAY 14, dose 1 mg/kg intravenously Q4d×4): 282 mm^3
- tumor volume (DAY 14, dose 3 mg/kg intravenously Q4d×4): 191 mm^3
- tumor volume (DAY 14, dose 5 mg/kg intravenously Q4d×4): 155 mm^3
- tumor volume (DAY 18, dose 1 mg/kg intravenously Q4d×4): 263 mm^3
- tumor volume (DAY 18, dose 3 mg/kg intravenously Q4d×4): 161 mm^3
- tumor volume (DAY 18, dose 5 mg/kg intravenously Q4d×4): 138 mm^3
- tumor volume (DAY 21, dose 1 mg/kg intravenously Q4d×4): 227 mm^3
- tumor volume (DAY 21, dose 3 mg/kg intravenously Q4d×4): 123 mm^3
- tumor volume (DAY 21, dose 5 mg/kg intravenously Q4d×4): 110 mm^3
- tumor volume (DAY 26, dose 1 mg/kg, intravenously Q4d×4): 205 mm^3
- tumor volume (DAY 26, dose 3 mg/kg, intravenously Q4d×4): 108 mm^3
- tumor volume (DAY 26, dose 5 mg/kg intravenously Q4d×4): 69 mm^3
- tumor volume (DAY 29, dose 1 mg/kg, intravenously Q4d×4): 180 mm^3
- tumor volume (DAY 29, dose 3 mg/kg, intravenously Q4d×4): 99 mm^3
- tumor volume (DAY 29, dose 5 mg/kg intravenously Q4d×4): 50 mm^3
- tumor volume (DAY 33, dose 1 mg/kg, intravenously Q4d×4): 211 mm^3
- tumor volume (DAY 33, dose 3 mg/kg, intravenously Q4d×4): 106 mm^3
- tumor volume (DAY 33, dose 5 mg/kg intravenously Q4d×4): 43 mm^3
- tumor volume (DAY 36, dose 1 mg/kg, intravenously Q4d×4): 215 mm^3
- tumor volume (DAY 36, dose 3 mg/kg, intravenously Q4d×4): 122 mm^3
- tumor volume (DAY 36, dose 5 mg/kg intravenously Q4d×4): 52 mm^3
- tumor volume (DAY 39, dose 1 mg/kg intravenously Q4d×4): 261 mm^3
- tumor volume (DAY 39, dose 3 mg/kg intravenously Q4d×4): 128 mm^3
- tumor volume (DAY 39, dose 5 mg/kg intravenously Q4d×4): 45 mm^3
- tumor volume (DAY 42, dose 1 mg/kg, intravenously Q4d×4): 283 mm^3
- tumor volume (DAY 42, dose 3 mg/kg, intravenously Q4d×4): 149 mm^3
- tumor volume (DAY 42, dose 5 mg/kg intravenously Q4d×4): 34 mm^3
- tumor volume (DAY 47, dose 1 mg/kg, intravenously Q4d×4): 262 mm^3
- tumor volume (DAY 47, dose 3 mg/kg, intravenously Q4d×4): 105 mm^3
- tumor volume (DAY 47, dose 5 mg/kg intravenously Q4d×4): 25 mm^3
- tumor volume (DAY 53, dose 1 mg/kg intravenously Q4d×4): 302 mm^3
- tumor volume (DAY 53, dose 3 mg/kg intravenously Q4d×4): 104 mm^3
- tumor volume (DAY 53, dose 5 mg/kg intravenously Q4d×4): 29 mm^3
- tumor volume (DAY 62, dose 1 mg/kg intravenously Q4d×4): 415 mm^3
- tumor volume (DAY 62, dose 3 mg/kg intravenously Q4d×4): 116 mm^3
- tumor volume (DAY 62, dose 5 mg/kg intravenously Q4d×4): 33 mm^3
- tumor volume (DAY 70, dose 1 mg/kg intravenously Q4d×4): 521 mm^3
- tumor volume (DAY 70, dose 3 mg/kg intravenously Q4d×4): 139 mm^3
- tumor volume (DAY 70, dose 5 mg/kg intravenously Q4d×4): 58 mm^3
- tumor volume (DAY 78, dose 1 mg/kg intravenously Q4d×4): 622 mm^3
- tumor volume (DAY 78, dose 3 mg/kg intravenously Q4d×4): 172 mm^3
- tumor volume (DAY 78, dose 5 mg/kg intravenously Q4d×4): 67 mm^3
- tumor volume (DAY 84, dose 1 mg/kg intravenously Q4d×4): 709 mm^3
- tumor volume (DAY 84, dose 3 mg/kg intravenously Q4d×4): 149 mm^3
- tumor volume (DAY 84, dose 5 mg/kg intravenously Q4d×4): 85 mm^3
- tumor volume (DAY 91, dose 1 mg/kg intravenously Q4d×4): 848 mm^3
- tumor volume (DAY 91, dose 3 mg/kg intravenously Q4d×4): 178 mm^3
- tumor volume (DAY 91, dose 5 mg/kg intravenously Q4d×4): 104 mm^3
- tumor volume (DAY 99, dose 3 mg/kg intravenously Q4d×4): 214 mm^3
- tumor volume (DAY 99, dose 5 mg/kg intravenously Q4d×4): 118 mm^3
- tumor volume (DAY 103, dose 3 mg/kg intravenously Q4d×4): 123 mm^3
- tumor volume (DAY 103, dose 5 mg/kg intravenously Q4d×4): 135 mm^3
